# Experimental data taken from ChEMBL document CHEMBL1201862, “PubChem BioAssay data set” (2004).
# System: NCI-H322M
# Experiment: inhibition of tumour cell growth, NCI panel, 48 h
row,SMILES,GI50
1,CCOC(=O)N1C2C=C(C)C(ON2C(=O)c2ccccc2)C2C(C)C(=O)N21 (stereo not drawn),inactive: > 100 µM
2,CCOC(=O)C(=O)C(=O)NN(C)C1=NCCN1,inactive: > 100 µM
3,O=C1c2ccccc2-c2cccc3ccc(Cc4ccc5ccccc5c4)c1c23,inactive: > 100 µM
4,Nn1c(Nc2ccc(S(N)(=O)=O)cc2)nnc(/C=C/c2c(O)ccc3ccccc23)c1=O,inactive: 15.8 µM
5,Nc1nc(NCC2(CO)CC2)cc(=O)[nH]1,inactive: > 100 µM
6,O=C(/C=C1\N=C(c2ccccc2)N(c2nc3ccc(Sc4ccccc4)cc3[nH]2)C1=O)/C=C/c1ccccc1,inactive: 51.1 µM
7,CC1(C)OCC2OC3(c4nc(C#N)c(N)o4)OC(C)(C)OC3C2O1 (stereo not drawn),inactive: > 100 µM
8,Cc1cccc(NC(=S)NNC(=O)c2cc(-c3ccccc3)nc3ccccc23)c1,inactive: 38.7 µM
9,CCOC(=O)c1nc2ccc(C(F)(F)F)cc2nc1Oc1cc(OC)c(OC)c(OC)c1,inactive: 72.6 µM
10,COC(=O)CCCc1c(-c2[nH]c3ccccc3c2CCCC(=O)OC)[nH]c2ccccc12,inactive: > 100 µM
11,COc1cc2c(cc1OC)[C@@H]1[C@H](C#N)C(=O)C(C)(C)N1CC2,inactive: > 100 µM
12,COC(=O)c1ccc(NCc2cc(O)c3ccccc3c2O)cc1,inactive: 11.5 µM
13,[N-]=[N+]=NCc1nc(N)c2c3c(sc2n1)CCCC3,inactive: 10.2 µM
14,C/C(=N/NC(=O)CC(=O)N(C(=O)c1ccccc1Cl)c1ccc(C)cc1)c1cc2ccccc2oc1=O,inactive: > 100 µM
15,CCOC(=O)c1cn2c(n1)sc1cc(Cl)ccc12,inactive: 50.9 µM
16,Clc1ccc2c(c1)-c1c3c(nn1-c1ccccc1)-c1ccccc1SC3O2 (stereo not drawn),inactive: > 100 µM
17,O=C1NC2NC3NC(=O)NC3NC2N1 (stereo not drawn),inactive: > 100 µM
18,CCOc1ccc(NC(=O)C(=O)CC(=O)C2=C(C)Nc3ccccc3S2)cc1,inactive: > 50 µM
19,O=S(=O)(CF)OCCCCOS(=O)(=O)CF,inactive: > 100 µM
20,CN(C)CCCNC(=S)S,inactive: > 100 µM
21,COc1ccc(OC)c(NC(=O)CCC/C(CC(=O)c2ccc(O)c(OC)c2)=N\Nc2nnc(C)n2N)c1,inactive: > 100 µM
22,COc1ccc2nc3c(c(NCCCN(C)C)c2c1)CCCC3,inactive: 14.3 µM
23,CC(C)[C@H]1CO[C@]2(C)[C@@H]3CN(Cc4ccccc4)C[C@@H]3C(=O)N12,inactive: > 100 µM
24,CSc1c(C#N)c(N)n2c1C(=O)N(c1ccccc1)C2=S,inactive: 96.6 µM

row,SMILES,GI50
1,CCN1CCN(c2nc3ccccc3nc2C(=O)c2ccc(OC)c(OC)c2)CC1,inactive: 19.2 µM
2,Cc1cccc(C)c1NC(=O)CCc1nnc2s/c(=C\c3ccc(N(C)C)cc3)c(=O)n12,inactive: > 100 µM
3,CCOC(=O)c1cn(-c2ccc(Cl)cc2)c(=O)n2c1nc1ccccc12,inactive: > 100 µM
4,CN1CCC2(CC1)SC[C@H]1C(=O)N(c3ccc(Cl)cc3)C(=O)N12,inactive: > 100 µM
5,Cc1nc(/C(=N\n2cnnc2)Nc2ccc(Br)cc2)no1,inactive: > 100 µM
6,COc1cc(CSc2ccc(O)cc2)cc(OC)c1OC,inactive: 65.6 µM
7,COc1c(-c2nc3ccc(N4CCN(C)CC4)cc3[nH]2)cc(OC)c2[nH]c(COC(C)=O)nc12,inactive: 39.3 µM
8,CC12CC3CC(C1)CC(N=[N+]=[N-])(C3)C2,inactive: > 100 µM
9,CC1S(=O)(=O)OCCOS1(=O)=O,inactive: > 100 µM
10,Cc1ccc(C2SCC(=O)N2NC(=O)c2ccncc2)s1 (stereo not drawn),inactive: > 100 µM
11,O=C(CBr)c1ccc2cc(Br)c3ccccc3c2c1,inactive: 23.3 µM
12,CC(C)(C)OC(=O)N(O)[C@@H]1C=C[C@H](n2cnc3c(N)ncnc32)C1,inactive: > 100 µM
13,O=C(CCc1ccccc1)n1cccc1CO,inactive: > 100 µM
14,COc1ccc(C2C(C#N)=C(O)NC(O)=C2C#N)cc1OC,inactive: > 100 µM
15,CCC/N=C1\S/C(=C/c2ccc(OC)c(OC)c2)C(=O)N1c1ccccc1,inactive: 27.9 µM
16,COc1cc(/C=C(\OC(C)=O)c2ccc3c(c2)OCO3)cc(OC)c1OC,inactive: 22.5 µM
17,O=C(Nc1ccc([N+](=O)[O-])cc1C(=O)O)c1ccc([N+](=O)[O-])cc1,inactive: 32.6 µM
18,COc1ccc(/N=N/C(=N\c2ccc(F)cc2)c2ccc(N(CCC#N)CCC#N)cc2)cc1,inactive: 52.8 µM
19,CN/C(N)=N/N=C1/C(=O)Nc2ccccc21,inactive: > 100 µM
20,COP(=O)(O)/C=C/C(NC(=O)C(Cl)(Cl)Cl)c1ccccc1 (stereo not drawn),inactive: > 100 µM
21,O=C(NCCCNC(=O)c1ccc2cc(O)c(O)cc2c1)c1ccc2cc(O)c(O)cc2c1,inactive: 30.2 µM
22,C/C(=C\c1ccccc1)C(=O)CCN1CCOCC1,inactive: > 100 µM
23,COc1cc(CC2CCc3nc(N)nc(N)c3C2)cc(OC)c1OC (stereo not drawn),active: 0.537 µM
24,COc1ccc(-c2cc(O)c3cccnc3n2)cc1,inactive: 35.2 µM

#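 Compound exposure: 48 hours, 5 concentrations, 96-well plates. At the GI50, growth is halved.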 Active and inactive are the calls of the source. No stated cut-off is given here; in the data, active = GI50 up to about 1.1 µM and inactive = higher.
